Measured values from the RNAGym collection of RNA variant scans (doi:10.7554/elife.90254).
Read counts are not given, so values of variants with three or more changes are uncertain.

B1: LINE1-mini (parent)
chain: GGCAGAGCUCAACACAGCGUGGCAAAGUGGCUGUGGCUAGACUGCC

Variants of: B1
Assay: self-cleavage, relative activity (ratio to wild type); higher = more cleavage; in vitro, sequencing; the parent is a self-cleaving ribozyme

Variant	self-cleavage
GGCGGAGCGCAACACAGCGUGGCAAAGUGGCUGAGGCUAGACUGCC [A4G U9G U34A]	0.06
GGCUGCGCGCAACACAGCGUGGCAAAGUGGAUGUGGCUAGACUGCC [A4U A6C U9G C31A]	0.03
GGCGGAGCUCAACACAGCGUGGCAAAGCGGCAGUGGCUAGACUGCG [A4G U28C U32A C46G]	0.04
GGCGGAGCUCAACACAGCGUGGCAAAGUGACUGUGGCUAGACCGCC [A4G G30A U43C]	1.79
GGCGGAGCUCAACACAGCUUGGCAAAGCGUCUAUGGCUAGAGUGCC [A4G G19U U28C G30U G33A C42G]	0.01
GGCGGAGCUCAACACAGCGUGGCAAAGUCGCUGUGGCUCGACUGCC [A4G G29C A39C]	0.03
GGCGGAGCUCAACACAGCGUGGCAAAUUGGCAUUGGCUCGACUGCC [A4G G27U U32A G33U A39C]	0.1
GGCGGAGCUCAACACAUCGUGGCAAAGUAGCUGGGGCUAGAUUGCC [A4G G17U G29A U34G C42U]	0.43
GGCGGAGCUCAACACACCGUGGCAAAGUUGCUCUGGCUAGACUGAC [A4G G17C G29U G33C C45A]	0.07
GGCGGAGCUCAACACAGCGUGGCAAACUGGCUGUGGCUAGACUGAC [A4G G27C C45A]	0.1
GGCGGAGCGCAACACAGCGUGGCAAAGUGGCUGUGGCUAGACUGCG [A4G U9G C46G]	0.24
GGCGGAGCUCAACACAGCCUGGCAAAGUGGCUGUGGCUUGACUGCC [A4G G19C A39U]	0.05
GGCGGAGCUCAACACAGCGUGGCAAAGUGGCUGUGACUAGGCUGCC [A4G G36A A41G]	0.11
GGCGGAGCUCAACACAGCGUGGCAAAGUGGCUGGGGCUACACUGCC [A4G U34G G40C]	0.24
GGCGGAGCUCAACACAUCAUGGCAAAGUGGCUGUGGCUAGACUGCC [A4G G17U G19A]	0.27
GGCGGAGCUCAACACAGCGCGGCAAAGUGGCUUUGGCUAGACUGCG [A4G U20C G33U C46G]	0.03
GGCGGAGCUCAACACAGCGUGGCAAAGUGGCUGUGACUAUACUGCC [A4G G36A G40U]	0.23
GGCGGAGCUCAACACAGCGUGGCAAAGUGGCGGUGGCUAUACUGCC [A4G U32G G40U]	0.05
GGCUGGGCUCAACACAGCGUGGCAAAGUGGCUGUGGCUAGACAGCC [A4U A6G U43A]	0.11

Variant	self-cleavage
GGCUGGGCUCAACACAGCGUGACAAAAUGGCUGUGGCUAUACUGCC [A4U A6G G22A G27A G40U]	0.02
GGCGGAGCUCAACACAGCGCGGCAAAGUGACUGUGGCUAGACUGCC [A4G U20C G30A]	0.17
GGCUGCGCUCAACAUAGCGUGGCAAAGUGGCUGUGGCUAGAGUGCC [A4U A6C C15U C42G]	0.07
GGCUGGGCGCAACACAGCGUAGCAAAGUGGCUGUGGCUAGACCGCC [A4U A6G U9G G21A U43C]	0.17
GGCGGAGCUCAACACAGCGUGGCAAAGUGUCUGAGGCUAGACUGCC [A4G G30U U34A]	0.11
GGCGGAGCUCAACACAGCGUCGCAAAGUGGCUGUGGCUAGACUUCC [A4G G21C G44U]	0.14
GGCGGAGCACAACGAAGCGUGGCAAAGUGGCUGUGGCUAGACUGCU [A4G U9A A14G C15A C46U]	0.24
GGCGGAGCUCAACACAGCGUUGCAAAGUGGCUGUGGCUAGACUGAC [A4G G21U C45A]	0.22
GGCGGAGCUCAACACAGCGUGGCAAAGUGGCUGUGGCGAGUCUGCC [A4G U38G A41U]	0.05
GGCGGAGCUCAACACAGCCUGGCAAGGUGGCAGUUGCAAGACUGCC [A4G G19C A26G U32A G35U U38A]	0.04
GGCGGAGCUCAACACAGCGAGGCAAAGUGGCUGUAGCUAGACUGCC [A4G U20A G35A]	0.15
GGCGGAGCUCAACACAGCGUGGCAAAGUGGCGGUGGCUAGAUUGCC [A4G U32G C42U]	0.05
GGCGGAGCUCAACACAGCAUGGCAAAGUGGCGGUGGCCAGGCUGCC [A4G G19A U32G U38C A41G]	0
GGCGGAGCUCAACACAGCAUGGCAAAGUGGCUGUGGCUAGUCUGCC [A4G G19A A41U]	0.01
GGCGGAGCUCAACACAGCGUUGCAAAGUUGCUGUGGCUAGACAGCC [A4G G21U G29U U43A]	0.09
GGCGGAGCUCAACACAGCCUGGUUAAGUGGCUGUGGCUAGACUGCC [A4G G19C C23U A24U]	0.22
GGCGGAGCUCAACACAGCGUCGCGAAGUGGCUGUGGCUAGACUGCC [A4G G21C A24G]	0.09
GGCGGAGCGCAACACAGCGUGGCAAAGUGGCUGUGCCUAGACGGCC [A4G U9G G36C U43G]	0
GGCGGAGCUCAACACAGCGUGGCAAAGGGGCUGUGGCAAGACUGUC [A4G U28G U38A C45U]	0.18

Variant	self-cleavage
GGCGGAGCUCAACACAGCGUGACAAAGUAGCUGUGGCUAAACGGCC [A4G G22A G29A G40A U43G]	0.02
GGCGGAGCACAAAACAGCUUGGUAAACUGGCUGUGGCUAGACUGCC [A4G U9A C13A G19U C23U G27C]	0.28
GGCGGAGCGCAACACAGCGUGCCAAAGUGGCUGUGGCUAGACUGCC [A4G U9G G22C]	0.08
GGCGGAGCUCAACACAGCGUGCCAAAGUGCGUGUGGCUAGACUGCC [A4G G22C G30C C31G]	0.07
GGCGGAGCUCAACACAGCGUGGCAAAGUGUCUGUGGCUCGACUGCC [A4G G30U A39C]	0.05
GGCGGAGCUCAACACAGCGUGGCAAAUUGACUGUGGCUAGCCUGCC [A4G G27U G30A A41C]	0.03
GGCGGAGCUCAACACAGCGUGGCAAAGUGGCUAUGGAUAGAUUGCU [A4G G33A C37A C42U C46U]	0.02
GGCGGAGCCCAACACAGCGUGGUAAAGUGGCUGUGGCUAGACUGCC [A4G U9C C23U]	0.05
GGCGGAGCUCAACACAGCGUGGCAAAGUUCCUAUGGCUAGACUGCC [A4G G29U G30C G33A]	0.02
GGCGGAGCGCAACACAGCGGGGCAAAGUGGCUGUGACUAGACUGCC [A4G U9G U20G G36A]	0.09
GGCGGAGCUCAACACAGCGUGGCAAAGUGGCUGUGGCUAUACUACC [A4G G40U G44A]	0.37
GGCGGAGCACAACACAGCGUCGCAAAGUGGCUGUGGCUAGACUUCC [A4G U9A G21C G44U]	0.06
GGCGGAGCUCAACACAGCGUGGCAAAGUGGCUGUGGCCAGACUGAC [A4G U38C C45A]	0.07
GGCGGAGCUCAACACAGCGAGGGAAAGUGGCUGUGGCUAGACUGCC [A4G U20A C23G]	0.12
GGCUGGGCUCAACACAGCGUGGCAAAGUGGCUGUGGCUAGACUGGC [A4U A6G C45G]	0.04
GGCGGAGCUCAACACAGCGUGGCAAAGUGGCUGUGGCGAGACUCCC [A4G U38G G44C]	0.02
GGCGGAGCUCAACACAGCCUUGCAAAUUGGCUGCGGAUAGACUGCC [A4G G19C G21U G27U U34C C37A]	0.06
GGCGGAGCUCAACACAGCGUGGCAAAGUUGCUGUGGCUGGACUGCC [A4G G29U A39G]	0.09
